Test results taken from article PMC12820563, “FoxP3 forms a head-to-head dimer in vivo and stabilizes its multimerization on adjacent microsatellites”.
Some of the results follow.

The sequences below were run against T1, MBP-FoxP1dN (Mus musculus, UniProt P58462 326-579) (assay: PD-seq (MBP pull-down with sequencing); 20 mM Tris-HCl pH 7.5, 100 mM NaCl, 1.5 mM MgCl2, 0.4 uM protein, 0.1 uM dsDNA library, 30 min, room temperature, amylose pull-down; high values mean tight binding). Settings: protein: recombinant; tags: His6-MBP; chain copies: 2; dsDNA, one strand shown.
T1 sequence: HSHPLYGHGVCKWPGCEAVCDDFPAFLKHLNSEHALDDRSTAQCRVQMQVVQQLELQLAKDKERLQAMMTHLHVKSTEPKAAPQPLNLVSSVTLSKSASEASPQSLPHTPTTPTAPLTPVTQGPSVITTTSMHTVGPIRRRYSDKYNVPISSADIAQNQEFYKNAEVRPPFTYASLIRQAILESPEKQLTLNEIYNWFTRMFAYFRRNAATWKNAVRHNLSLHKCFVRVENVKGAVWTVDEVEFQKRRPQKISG
Method in brief: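 E. coli-expressed mouse FoxP3 or FoxP1 fragment, N-terminus removed and tagged with His6-MBP, was used at 0.4 µM against 0.1 µM of a Klenow-filled degenerate double-stranded DNA library. After 30 min at room temperature in Tris pH 7.5 buffer with NaCl and MgCl2, complexes were pulled down on amylose resin and washed three times. Binding is pull-down over input reads-per-million enrichment from pooled replicates of the proteinase K-released, PCR-barcoded, Illumina-sequenced DNA.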
With “GATGATTGTTCTCCCAGCTGATGAATTAAGCCATTCGAGTAAACAAATTTTCCTAATCTTTCTGTTCAAGCGCCATCTAC” the binding signal was 0.989 RPM ratio (pull-down/input).
“GATGATTGTTCTCCCAGCTGATGAATTCCACGTCTCGAGTAAACAAATTTTCCTAATCTTTCTGTTCAAGCGCCATCTAC” was tested, and the binding signal was 0.806 RPM ratio (pull-down/input).
For “GATGATTGTTCTCCCAGCTGATGAATTGGCACCTTCGAGTAAACAAATTTTCCTAATCTTTCTGTTCAAGCGCCATCTAC”, the binding signal was 0.842 RPM ratio (pull-down/input).
With “GATGATTGTTCTCCCAGCTGATGAATTCGTCAATTCGAGTAAACAAATTTTCCTAATCTTTCTGTTCAAGCGCCATCTAC” the binding signal was 0.981 RPM ratio (pull-down/input).
For “GATGATTGTTCTCCCAGCTGATGAATTTGTGGTTTCGAGTAAACAAATTTTCCTAATCTTTCTGTTCAAGCGCCATCTAC”, the binding signal was 1.14 RPM ratio (pull-down/input).
For “GATGATTGTTCTCCCAGCTGATGAATTACTATGATCGAGTAAACAAATTTTCCTAATCTTTCTGTTCAAGCGCCATCTAC”, the binding signal was 1.1 RPM ratio (pull-down/input).
With “GATGATTGTTCTCCCAGCTGATGAATTAGGAGGTTCGAGTAAACAAATTTTCCTAATCTTTCTGTTCAAGCGCCATCTAC” the binding signal was 0.764 RPM ratio (pull-down/input).
“GATGATTGTTCTCCCAGCTGATGAATTCTGTCGATCGAGTAAACAAATTTTCCTAATCTTTCTGTTCAAGCGCCATCTAC” was tested, and the binding signal was 0.929 RPM ratio (pull-down/input).
“GATGATTGTTCTCCCAGCTGATGAATTCGCCCACTCGAGTAAACAAATTTTCCTAATCTTTCTGTTCAAGCGCCATCTAC” was tested, and the binding signal was 0.8 RPM ratio (pull-down/input).
“GATGATTGTTCTCCCAGCTGATGAATTTGTTGTGTCGAGTAAACAAATTTTCCTAATCTTTCTGTTCAAGCGCCATCTAC” was tested, and the binding signal was 2.48 RPM ratio (pull-down/input).
“GATGATTGTTCTCCCAGCTGATGAATTGGAGGGATCGAGTAAACAAATTTTCCTAATCTTTCTGTTCAAGCGCCATCTAC” was tested, and the binding signal was 0.797 RPM ratio (pull-down/input).
For “GATGATTGTTCTCCCAGCTGATGAATTAAACAAATCGAGTAAACAAATTTTCCTAATCTTTCTGTTCAAGCGCCATCTAC”, the binding signal was 2.02 RPM ratio (pull-down/input).
For “GATGATTGTTCTCCCAGCTGATGAATTGAGCGGATCGAGTAAACAAATTTTCCTAATCTTTCTGTTCAAGCGCCATCTAC”, the binding signal was 0.789 RPM ratio (pull-down/input).
In the case of “GATGATTGTTCTCCCAGCTGATGAATTTTACGAATCGAGTAAACAAATTTTCCTAATCTTTCTGTTCAAGCGCCATCTAC”, the binding signal is reported as 0.971 RPM ratio (pull-down/input).
With “GATGATTGTTCTCCCAGCTGATGAATTCCTCCTGTCGAGTAAACAAATTTTCCTAATCTTTCTGTTCAAGCGCCATCTAC” the binding signal was 0.729 RPM ratio (pull-down/input).
In the case of “GATGATTGTTCTCCCAGCTGATGAATTGTCTAGGTCGAGTAAACAAATTTTCCTAATCTTTCTGTTCAAGCGCCATCTAC”, the binding signal is reported as 0.931 RPM ratio (pull-down/input).
In the case of “GATGATTGTTCTCCCAGCTGATGAATTAGGTCTGTCGAGTAAACAAATTTTCCTAATCTTTCTGTTCAAGCGCCATCTAC”, the binding signal is reported as 0.793 RPM ratio (pull-down/input).
For “GATGATTGTTCTCCCAGCTGATGAATTCAACGGATCGAGTAAACAAATTTTCCTAATCTTTCTGTTCAAGCGCCATCTAC”, the binding signal was 0.913 RPM ratio (pull-down/input).
